Measurements taken from the supplement of paper PMC11417369.
± gives the standard deviation of the averaged measurements. The list shows a part of the results.

system: PfAP2-G AP2 domain (GST-tagged); assay: gcPBM binding intensity (ln(normalized median fluorescence intensity)); higher = stronger DNA binding
How it was run: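 After 1 h on an Agilent 4 × 180k array of primer-extended double-stranded 36-bp intergenic genomic probes and negative controls, bound GST-tagged P. falciparum DNA-binding domains were detected with Alexa488 anti-GST antibody and scanned at 488 nm. The domains had been expressed in E. coli, and binding took place in 1× PBS with 1% milk, 0.2 mg/ml BSA, 0.5% salmon testes DNA and 0.03% Triton X-100. Binding intensity is the highest Masliner-normalised natural-log median intensity across replicate spots of either probe orientation.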

Sequence	gcPBM binding intensity (ln)
AGCAGGATTAAAAAAAGTACAAGAATTAATATTTAA [XGTACX_site3413]	11.3 ± 0.88
ATATATAATAAACAGGTGCATTGTTTTATTTTGTAT	9.78 ± 0.057
ACCAGTTCTTAATACAAATATGTACATATATATATA [GTGCAC_negctrl_site56]	11.2 ± 0.68
TTTTTTTTAATTGTGATACGTATATTATTTAATGAT [CACACA_negctrl_site38]	10.5 ± 0.42
AAAGAAAATAACAAAATTTTGAAAACATCACATTCG [CACACA_negctrl_site89]	9.965 ± 0.049
AAATTAAAGGCATAAAAGAAAATATTTAATAAAAAA [CACACA_negctrl_site1689]	9.65 ± 0.23
GAACATTTGAAATATGCACACATGTATAAACCTACA [CACACA_site2654]	10.2 ± 0.092
TAAAAATAAAGAAAATGTACATAAATAATAATACAT [XGTACX_site2278]	11.2 ± 0.69
TATTTCATCTTATTTTAGGAAAAACTAATATATAAG [CACACA_negctrl_site1823]	9.86 ± 0.2
TATTCGTCTTTTTTCTCACACACCCTTTTTATTAAA [CACACA_site2508]	10.2 ± 0.18
AAATTTAGGAACATTATATATATATATATATATATA [CACACA_negctrl_site862]	9.98 ± 0.52
CAAAAAAAGGAAAAGATACACACCGTAAATTAAAAT [CACACA_site3612]	9.88 ± 0.11
AACAAACAAACAAATATACACACTTTTGTATAAAGT [CACACA_site3509]	9.915 ± 0.078
ATTATACATTTTAGATGTACATATTTTAAATTTAAT [XGTACX_site5174]	11.4 ± 0.83
ATATTTTGTATAATCACACACACTATTCTTAAATAG [CACACA_site7270]	10.1 ± 0.16
AGAAATTAATCGAAGTGTACATATAAACATACATAT [XGTACX_site5518]	11.3 ± 0.69
TACATATATATATACACACATACATATATATACGCA [CACACA_site792]	9.95 ± 0.13
AACCTCGTGTAATATGCATGTTCCCTTCAAAGTTTT [TGCATGCA_site459]	9.96 ± 0.099
CCCACATAAAAAAATAAACACACATATGTATATATA [CACACA_site9040]	9.86 ± 0.16
AAATGGGCTTATTTATGTACTTAAATATATCTACCC [XGTACX_site3823]	11.4 ± 0.86
TAATCAATTCAATATTGTACGATATTTACCTTTAAA [XGTACX_site4678]	11 ± 0.62
AAAAAAATCTATATTACACACATATATACCTATATA [CACACA_site7464]	9.86

Sequence	gcPBM binding intensity (ln)
TATTTATGTTATAATTGTACAATAAACAAATTTTTT [XGTACX_site5306]	10.9 ± 0.53
TACATTGTATACATATGTACACATATATATATATAT [XGTACX_site6174]	11.5 ± 0.71
ATAGGTGAATACTAATATAAATTCAAGAGGGAAAAG [CACACA_negctrl_site720]	9.79 ± 0.13
TTTACATTAAATCACGCACACAAAAAAAAAAAAAAA [CACACA_site2418]	10.2 ± 0.67
GAAATGTATAAATCCATACACACATAAATTTTAATA [CACACA_site2364]	9.865 ± 0.021
TAAATATAAAAATGCACACACACAAAAAAAAAAAAA [CACACA_site895]	9.91 ± 0.55
TATATATATATAATGTGTACATACTAAATAGAGGAC [XGTACX_site4153]	11.7 ± 1.1
ATCTATGGAGCTTATACACACTTTTATATTTTAACA [CACACA_site5994]	10.05 ± 0.057
TTTGAATTTTTATATACACACATTATTATATTATAT [CACACA_site1593]	9.975 ± 0.078
TATTTATTTGTGGGGTGTACGAAATTTTTTTTTTTT [XGTACX_site5091]	11.2 ± 0.69
TTTCTTTTTAAAGTGTATTAAAATTGAATAAAAAGA [XGTACX_negctrl_site408]	10.1 ± 0.34
TATTAATATTTACACACATGCGCACACATAAATAAA [TGCATGCA_site609]	10.7 ± 0.45
ATTAAATGATTCATATGTACATAAATAAATAAATAT [XGTACX_site2249]	11.2 ± 0.67
GTACAGATATTGTACATACACACCTATATAAATATC [CACACA_site5739]	11.2 ± 0.81
TAAATCCGCAGGCACACACACATATTAAGAAAAAAA [CACACA_site6061]	10.1 ± 0.31
ATGAAAAAACATAATTGTACAAAAGTTGGATTCGAT [XGTACX_site7732]	10.9 ± 0.39
ATCATCACATAAGAAAATAGATAAAAAAAAAAAAAT [XGTACX_negctrl_site589]	9.66 ± 0.12
TTTTTTTTTTTTGTCACACACCTTCATAAGAAAAAA [CACACA_site4779]	10.2 ± 0.4
TGGGAACAATATATTTGTACTTAAATAAATAAAAAA [XGTACX_site6762]	11.1 ± 0.64
GAACAAAATGATAGAAGTACAAATATTTATTTTGTT [XGTACX_site7146]	11.2 ± 0.67
TATATTTATAAGTGTACACATTATATAAATCCCTAT [CACACA_site6122]	11.7 ± 1.1
AAAGAGAAACAAAATTGTACATTATATTGTAGACGT [XGTACX_site976]	10.8 ± 0.35
